According to the supplement of paper PMC6135742:
Counter-ions that a name gives are not always drawn. ± gives the standard deviation of the averaged measurements. Over roughly 2,600 compounds, “total cell number (DAPI+ nuclei) relative to DMSO vehicle control” has its median near -1.4; the lowest 2% begin near -23. The list shows a part of the results.

These compounds were tested on jimpy (Plp1 jimpy) mouse iPSC-derived oligodendrocyte progenitor cells (assay: total cell number (DAPI+ nuclei) relative to DMSO vehicle control (SDs above negative control mean); higher = more surviving cells). Conditions: 10 µM; 3 days.
In the case of `Nc1nc(=O)n([C@@H]2CS[C@H](CO)O2)cc1F` [Emtricitabine], the total cell number is reported as -1.83. `CCc1cccc(CC)c1NC(=O)N1Cc2[nH]nc(NC(=O)c3ccc(N4CCN(C)CC4)cc3)c2C1` showed a total cell number of -17.5. For `COC(=O)N[C@@H](C)CNc1nccc(-c2cn(C(C)C)nc2-c2cc(Cl)cc(NS(C)(=O)=O)c2F)n1`, the total cell number was -4.4. `CC[C@@H]1C(=O)N(C)c2cnc(Nc3ccc(C(=O)N[C@H]4CC[C@H](N5CCN(CC6CC6)CC5)CC4)cc3OC)nc2N1C(C)C` [Volasertib (BI 6727)] showed a total cell number of -14.6. In the case of `CC#C[C@]1(O)CC[C@H]2[C@@H]3CCC4=CC(=O)CCC4=C3[C@@H](c3ccc(N(C)C)cc3)C[C@@]21C` [Mifepristone], the total cell number is reported as -3.26 ± 0.76. Work on `COc1cccc2c1C(=O)c1c(O)c3c(c(O)c1C2=O)C[C@@](O)(C(=O)CO)C[C@@H]3O[C@H]1C[C@H](N)[C@H](O[C@@H]2CCCCO2)[C@H](C)O1` [Pirarubicin] yielded a total cell number of -22.5. Work on `Cc1nc(C(=O)NCC(=O)O)c(O)c2ccc(Oc3ccccc3)cc12` yielded a total cell number of 3.22. `COC(=O)C1=CO[C@@H](O)[C@@H]2C(CO)=CC[C@H]12` [Genipin] gave a total cell number of -0.955 ± 0.41. With `CCCCCCNC(=O)n1cc(F)c(=O)[nH]c1=O` [Carmofur] the total cell number was -17 ± 11. For `CCCOc1ccccc1-c1nc2[nH]nnc2c(=O)[nH]1` [Zaprinast], the total cell number was -9.68. Work on `CCCCOc1ccc(C(=O)Nc2ccc(F)cc2F)cc1` yielded a total cell number of 1.72. With `Nc1nc(OCc2cc(Br)cs2)c2[nH]cnc2n1` [Lomeguatrib] the total cell number was -1.88 ± 0.17. Work on `CC(=O)Nc1nnc(S(N)(=O)=O)s1` [Acetazolamide] yielded a total cell number of -0.819. For `CC(C)Oc1ccc2c(=O)c(-c3ccccc3)coc2c1` [Ipriflavone (Osteofix)], the total cell number was -0.104. Compound `Cc1cc(Nc2cc(N3CCN(C)CC3)nc(Sc3ccc(NC(=O)C4CC4)cc3)n2)n[nH]1` [VX-680 (Tozasertib, MK-0457)] has a total cell number of -24. Compound `Clc1ccc2nsnc2c1NC1=NCCN1` [Tizanidine HCl] has a total cell number of 0.414. With `Clc1ccc2nsnc2c1NC1=NCCN1` [Tizanidine hydrochloride] the total cell number was -1.21. Work on `Cc1cc(C(C)Nc2ccccc2)c2nc(N3CCOCC3)cc(=O)n2c1` (centres undefined) yielded a total cell number of -11.4. Compound `O=C(O)CCC(C(=O)O)N1C(=O)c2ccccc2C1=O` [L-Glutamic acid, N-phthaloyl-] has a total cell number of -0.877. `NC1(Cc2ccc(Cl)cc2)CCN(c2ncnc3[nH]ccc23)CC1` showed a total cell number of -7.73. `CCOC(=O)C1=C(N)Oc2ccc(Br)cc2C1C(C#N)C(=O)OCC` (centres undefined) was tested, and the total cell number was -0.448. `O=C1O[C@H]([C@@H](O)CO)C([O-])=C1O.[Na+]` [Sodium ascorbate] was tested, and the total cell number was 0.261. Compound `CCCCOc1cc(C(=O)OCCN(CC)CC)ccc1N` [Oxybuprocaine HCl] has a total cell number of 3.12. `N#C/C(=C1/SC[C@@H](c2ccc(Cl)cc2Cl)S1)n1ccnc1` [Luliconazole] showed a total cell number of 4.6. Compound `COC(=O)[C@H](Cc1ccccc1)NC(=O)[C@@H](N)CC(=O)O` [Aspartame] has a total cell number of 1.78. Compound `CCS(=O)(=O)c1cccc(-c2cc(C(=O)NC3CCN(C)CC3)c(C)c3[nH]c4ncc(C)cc4c23)c1` has a total cell number of -11.1. `Clc1ccc(C2(c3ccc(-c4cn[nH]c4)cc3)CCNCC2)cc1` showed a total cell number of -15.2. `C[C@]12CC[C@@H]3c4ccc(O)cc4C[C@@H](CCCCCCCCC[S+]([O-])CCCC(F)(F)C(F)(F)F)[C@H]3[C@@H]1CC[C@@H]2O` (some centres undefined) [Fulvestrant] gave a total cell number of -1.29 ± 0.8. Compound `C=C[C@](C)(O)CC[C@@H]1[C@@]2(C)CCCC(C)(C)[C@@H]2CC[C@@]1(C)O` [Sclareol] has a total cell number of -13.2. Work on `CO/N=C(\C(=O)N[C@@H]1C(=O)N2C(C(=O)O)=C(COC(C)=O)CS[C@H]12)c1csc(N)n1` [Cefotaxime sodium] yielded a total cell number of -1.18. In the case of `Nc1ccc(S(=O)(=O)Nc2nccs2)cc1` [Sulfathiazole], the total cell number is reported as -2.52. Work on `O=C(O)c1cccc(-c2noc(-c3ccccc3F)n2)c1` [Ataluren (PTC124)] yielded a total cell number of -0.157. Compound `CC(C)[N+]1(C)[C@@H]2CC[C@H]1C[C@@H](OC(=O)C(CO)c1ccccc1)C2` (some centres undefined) [Ipratropium bromide] has a total cell number of -0.664. `CC(C)[N+]1(C)[C@@H]2CC[C@H]1C[C@@H](OC(=O)C(CO)c1ccccc1)C2` (some centres undefined) [Ipratropium Bromide] gave a total cell number of 0.67. In the case of `Cc1ccc(-c2cc(C(F)(F)F)nn2-c2ccc(S(N)(=O)=O)cc2)cc1` [Celecoxib], the total cell number is reported as 0.578 ± 0.53. Compound `CN1CCc2nc(C(=O)N[C@@H]3C[C@@H](C(=O)N(C)C)CC[C@@H]3NC(=O)C(=O)Nc3ccc(Cl)cn3)sc2C1` [Edoxaban] has a total cell number of 1.13. `OCCn1cc(-c2ccc3c(c2)CC/C3=N\O)c(-c2ccncc2)n1` was tested, and the total cell number was 8.12. `CC[C@H]1OC(=O)[C@H](C)[C@@H](O[C@H]2C[C@@](C)(OC)[C@@H](O)[C@H](C)O2)[C@H](C)[C@@H](O[C@@H]2O[C@H](C)C[C@H](N(C)C)[C@H]2O)[C@](C)(O)C[C@@H](C)CN(C)[C@H](C)[C@@H](O)[C@]1(C)O` [Azithromycin dihydrate] was tested, and the total cell number was -4.55. With `CC[C@H]1OC(=O)[C@H](C)[C@@H](O[C@H]2C[C@@](C)(OC)[C@@H](O)[C@H](C)O2)[C@H](C)[C@@H](O[C@@H]2O[C@H](C)C[C@H](N(C)C)[C@H]2O)[C@](C)(O)C[C@@H](C)CN(C)[C@H](C)[C@@H](O)[C@]1(C)O` [Azithromycin] the total cell number was -5.9. `CCn1c(N)c(C(=O)NC)c(=O)c2ccc(C#CC(C)(O)COC)nc21` (centres undefined) was tested, and the total cell number was -4.74. `COCCNC(=O)COc1ccc(OCCNC[C@H](O)COc2ccccc2)cc1` [ZD 7114 hydrochloride] was tested, and the total cell number was -0.987. Work on `CN[C@H]1CC[C@@H](c2ccc(Cl)c(Cl)c2)c2ccccc21` [Sertraline HCl] yielded a total cell number of -15.3. Work on `CN[C@H]1CC[C@@H](c2ccc(Cl)c(Cl)c2)c2ccccc21` [Sertraline hydrochloride] yielded a total cell number of -11.1. In the case of `CCN(CC)CCNC(=O)c1ccc(N)cc1` [Procainamide hydrochloride], the total cell number is reported as -1.63. `NC[C@H](O)c1ccc(O)c(O)c1` [Noradrenaline bitartrate monohydrate] showed a total cell number of 0.445. For `c1ccc2c(c1)CC(N1CCN(c3cccc4c3OCCO4)CC1)C2`, the total cell number was 3.03. `Cc1c(-c2ccc(O)cc2)n(Cc2ccc(OCCN3CCCCCC3)cc2)c2ccc(O)cc12` [Bazedoxifene HCl] was tested, and the total cell number was -14.4. `C=C[C@]1(C)C[C@@H](OC(=O)CSC(C)(C)CNC(=O)[C@H](N)C(C)C)[C@]2(C)[C@H](C)CC[C@]3(CCC(=O)[C@H]32)[C@@H](C)[C@@H]1O` [Valnemulin HCl] gave a total cell number of -4.11. `c1cc(CN2CCCCC2)cc(OCCCNc2nc3ccccc3s2)c1` was tested, and the total cell number was -4.93. `CCc1cc2c(cc1CC)CC(NC[C@H](O)c1ccc(O)c3[nH]c(=O)ccc13)C2` [Indacaterol Maleate] gave a total cell number of -6.46. `COCC(=O)NC/C=C/c1ccc2ncnc(Nc3ccc(Oc4ccc(C)nc4)c(C)c3)c2c1` showed a total cell number of -6.54. Compound `Cn1c(=O)c2c(ncn2CC2OCCO2)n(C)c1=O` [Doxofylline] has a total cell number of -0.607. `CN1CCN(CC(=O)N2c3ccccc3C(=O)Nc3cccnc32)CC1` [Pirenzepine dihydrochloride] was tested, and the total cell number was 0.73. `CC(C)NC[C@@H](C(=O)N1CCN(c2ncnc3c2[C@H](C)C[C@H]3O)CC1)c1ccc(Cl)cc1` showed a total cell number of -8.76. `O=C1c2c(O)cc(O)cc2O[C@H](c2ccc(O)c(O)c2)[C@H]1O` (racemic) [(±)-Taxifolin] showed a total cell number of -0.904. In the case of `CC(C)(C)c1cc(C(C)(C)C)c(NC(=O)c2c[nH]c3ccccc3c2=O)cc1O` [Ivacaftor (VX-770)], the total cell number is reported as 4.13. Compound `Cc1ccc([C@@H]2O[C@H](CO)[C@@H](O)[C@H](O)[C@H]2O)cc1Cc1ccc(-c2ccc(F)cc2)s1` [Canagliflozin] has a total cell number of -1.17. `COC(=O)Nc1nc2cc(Sc3ccccc3)ccc2[nH]1` [Fenbendazole] showed a total cell number of -6.32. Compound `COc1cccc(C=NCCN=Cc2cccc(OC)c2[O-])c1[O-].[Cl-].[Mn+3]` has a total cell number of 0.358. Compound `CNCCc1cnc(CCC(c2ccccc2)c2ccccc2)[nH]1` [N-Methylhistaprodifen dioxalate salt] has a total cell number of -8.93. With `CCOC(=O)[C@H]1O[C@@H]1C(=O)N[C@@H](CC(C)C)C(=O)NCCC(C)C` [Aloxistatin] the total cell number was -3.84. `C=CC(=O)Nc1cccc(Sc2nc(Nc3ccc(N4CCN(C)CC4)cc3)ncc2Cl)c1` gave a total cell number of -26.9. In the case of `O=C(Nc1cccnc1)c1cc(-c2ccnc(F)c2)ccc1OCc1ccccc1`, the total cell number is reported as -3.79. `COC(=O)C1=C(C)NC(C)=C(C(=O)OC(C)(C)CN(C)CCC(c2ccccc2)c2ccccc2)C1c1cccc([N+](=O)[O-])c1` (centres undefined) [Lercanidipine hydrochloride hemihydrate] gave a total cell number of -8.91. `C[C@]12CCC(=O)C=C1CC[C@@H]1[C@@H]2CC[C@@]2(C)[C@H]1CC[C@]2(O)C(=O)CO` [Cortexolone] showed a total cell number of -0.524. For `c1ccc(-c2ccc(C(c3ccccc3)n3ccnc3)cc2)cc1` (centres undefined) [Bifonazole], the total cell number was 17.8. `Oc1c(Cl)cc(Cl)c2cccnc12` [Chloroxine] gave a total cell number of -4.01. For `COc1ccccc1N1CCN(CCCNc2c(C)c(=O)n(C)c(=O)n2C)CC1` [Urapidil, 5-Methyl-], the total cell number was -1.49. Compound `O=C1CC[C@@H](C(=O)N2CSC[C@H]2C(=O)O)N1` [Pidotimod] has a total cell number of -0.632. `COc1ccc(Cl)cc1NC(=O)Nc1cc(C)nc2ccccc12` was tested, and the total cell number was -10.4. `CN(C)CCC(c1ccc(Br)cc1)c1ccccn1` (centres undefined) [Brompheniramine hydrogen maleate] gave a total cell number of -1.36. Work on `COc1cc2ncnc(Nc3cccc(Br)c3)c2cc1OC` yielded a total cell number of -7.3. For `COc1cc(Nc2c(C#N)cnc3cc(OCCCN4CCN(C)CC4)c(OC)cc23)c(Cl)cc1Cl` [Bosutinib (SKI-606)], the total cell number was -26.4. In the case of `COc1cc(Nc2c(C#N)cnc3cc(OCCCN4CCN(C)CC4)c(OC)cc23)c(Cl)cc1Cl` [Bosutinib], the total cell number is reported as -10.5.
